Data as given in PubChem BioAssay AID504832 (National Center for Advancing Translational Sciences (NCATS), 2011).
The campaign covered roughly 310,000 compounds. About 18,000 (5.8%) were called active. Inconclusive means that the source gave no clear call. Such entries were picked first, then a sample of the others. Calls come from the whole dose curve; as a rule, active = well fitted inhibition curve with a large enough effect; inconclusive = small, poorly fitted or top-dose-only effect, or another doubt; inactive = no such curve, though single readings can be large or run the other way. Potencies of inconclusive entries are left out as doubtful fits.

test: Primary qHTS for delayed death inhibitors of the malarial parasite plastid, 48 hour incubation; conditions: P. falciparum luciferase growth in erythrocytes; series mostly up to 28.7 µM
Method in brief: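 Luciferase-expressing P. falciparum in infected erythrocytes (2% hematocrit, 0.1% parasitemia final) in RPMI 1640/0.5% Albumax were exposed to compound for 48 hours at 37 C, 5% CO2; growth read as luminescence.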
Potency is the fitted concentration of half-maximal effect; tags give direction and shape of the fitted curve.

Structure (SMILES) | Potency
CC(OC(=O)CCOc1ccccc1)C(=O)Nc1ccc(Cl)cn1 (stereo not drawn) | inactive
COC(=O)c1ccc(CN(c2ccccn2)S(=O)(=O)c2ccccc2)cc1 | inconclusive [inhibitor, single point]
CCCN(CC(=O)Nc1ccccc1C)C(=O)CC(NC(=O)c1ccccc1)c1ccccc1 (stereo not drawn) | inconclusive [inhibitor, partial curve, poor fit]
COc1cccc(/C=C/C(=O)c2ccc3c(c2)OCO3)c1OC | inactive
Cc1nc(NS(=O)(=O)c2ccccc2)sc1NC(=O)OC(C)C | inconclusive [inhibitor, full curve, poor fit]
CCOc1cc(C(=S)N2CCCC2)ccc1OCC(=O)Nc1c(C)cc(C)cc1C | active: 2.33 µM
COc1cccc(N2CCN(C(=O)CNC(=O)c3sc4ccccc4c3Cl)CC2)c1 | inconclusive [inhibitor, single point]
COc1ccc(Cn2c(-c3ccc(Br)cc3)c[n+]3ccccc23)cc1 | active: 0.657 µM
O=C(Cc1cccs1)N/N=C/C=C/c1ccccc1 | inactive
O=C(c1ccccc1)c1ccc(OCC(O)CNC2CCCc3ccccc32)cc1 (stereo not drawn) | inconclusive [inhibitor, single point]
Cc1cc(N2CCN(C)CC2)nc2ccc(NC(=S)N3CCN(c4ccc(F)cc4)CC3)cc12 | inactive
CC(C)(C)NC(=O)Cc1ccc(S(=O)(=O)N2CCCC2)s1 | inconclusive [inhibitor, partial curve, poor fit]
COc1ccc(-c2cn[nH]c2-c2ccc(OCc3ccc([N+](=O)[O-])cc3)cc2O)cc1 | active: 13.1 µM
Cc1ccc2ncc(S(=O)(=O)c3ccccc3)c(N3CCCCC3C)c2c1 (stereo not drawn) | inconclusive [inhibitor, full curve, poor fit]
COC(=O)c1c(Sc2ccccc2)c2ccccc2n1C | inactive
COc1ccc2cc(CCNC(=O)c3ccc(Br)o3)c(=O)[nH]c2c1 | inconclusive [inhibitor, partial curve]
O=C(N/N=C\c1ccc([N+](=O)[O-])o1)c1cncc(Br)c1 | inconclusive [inhibitor, partial curve]
CCN(CC)S(=O)(=O)c1cc(NC(=O)COC(=O)CCC(=O)c2ccc(F)cc2)ccc1C | inactive
Cc1cccc(N2CCN(C(=O)C34CC5CC(CC(C5)C3)C4)CC2)c1C | inconclusive [inhibitor, partial curve]
Cc1c(C(=O)N/N=C/c2cccnc2)sc(N)c1C#N | inconclusive [inhibitor, partial curve]
Cc1nc2c(c(=O)n1CCC(C)C)c1nc3ccccc3nc1n2CC1CCCO1 (stereo not drawn) | inconclusive [inhibitor, single point]
CN1CCN(C(=O)CCC(=O)c2ccc(F)cc2)CC1 | inactive

Structure (SMILES) | Potency
CCc1ccccc1NC(=O)CN(C)Cc1nc(N)nc(Nc2ccccc2C)n1 | inconclusive [inhibitor, full curve]
CCCC(=O)Nc1nnc(CC(=O)N2CCCC2)s1 | inconclusive [inhibitor, partial curve, poor fit]
C=CCN(C(=O)C1CC(=O)N(C2CCCC2)C1)c1nc(-c2ccc(S(C)(=O)=O)cc2)cs1 (stereo not drawn) | inconclusive [inhibitor, single point]
CCOC(=O)C1CCCN(C(=O)c2sc3nc(-c4ccc(F)cc4)cn3c2C)C1 (stereo not drawn) | inconclusive [inhibitor, partial curve, poor fit]
Oc1ccc(Br)cc1/C=N/n1cnc2ccccc21 | active: 3.29 µM
O=C(CC1C(=O)Nc2ccccc2N1CC(=O)N1CCCC1)Nc1ccc(Br)cc1 (stereo not drawn) | inactive
COc1ccc(C(=O)NCCc2ccc(C(F)(F)F)cc2)cc1S(=O)(=O)N1CCOCC1 | inconclusive [inhibitor, partial curve, poor fit]
Cc1cc(C(=O)CN2c3cccc4cccc(c34)S2(=O)=O)c(C)n1C | inconclusive [inhibitor, partial curve, poor fit]
COc1cc2c3nnc(-c4ccccc4)c-3cn(Cc3ccccc3F)c2cc1OC | inconclusive [inhibitor, partial curve]
Cc1ccc(C)c(N2CCN(S(=O)(=O)CC34CCC(CC3=O)C4(C)C)CC2)c1 (stereo not drawn) | inconclusive [inhibitor, single point]
CC(C)[C@H](NC(=O)N1c2ccccc2NC(=O)[C@@H]1C(C)C)C(=O)N[C@H](C(=O)O)c1ccccc1 | inconclusive [inhibitor, partial curve, poor fit]
Cc1ccc(CNC(=O)CSc2nc3ccccc3c3nc(C)nn23)cc1 | inactive
CNC(=O)c1ccccc1NC(=O)C1CC(=O)N(c2ccc(OC)cc2)C1 (stereo not drawn) | inactive
CCNS(=O)(=O)c1ccc(CCC(=O)N2CCN(c3cccc(Cl)c3)CC2)cc1 | inconclusive [inhibitor, partial curve]
CCOC(=O)N1CCN(C(=O)/C=C/c2c(C)nn(-c3ccc(F)cc3)c2Cl)CC1 | inconclusive [inhibitor, single point]
Fc1ccc(Nc2nc(N/N=C/c3ccco3)nc(N3CCCCC3)n2)cc1 | inconclusive [inhibitor, partial curve, poor fit]
Cn1c(SCC(=O)NCC2CCCO2)nnc1-c1ccc(Cl)cc1 (stereo not drawn) | inactive
O=C(Nc1ccc(N2CCOCC2)cc1Cl)C1CCN(C(=O)OCc2ccccc2)CC1 | inconclusive [inhibitor, partial curve, poor fit]
C1=CC2c3ccccc3NC(c3ccncc3)C2C1 (stereo not drawn) | inconclusive [inhibitor, partial curve, poor fit]
Cc1nc2ncccn2c1-c1csc(Nc2ccc(N(C)C)cc2)n1 | inconclusive [inhibitor, partial curve]
O=C(CSc1nnc(-c2cccs2)o1)OCc1ccccc1 | inconclusive [inhibitor, partial curve, poor fit]
